# Assay results published in PubChem BioAssay AID686978 (National Center for Advancing Translational Sciences (NCATS), 2013).
# Several values for one entry are separate records, joined by “and”; a condition that tells them apart may be missing. Equal entries are not always repeated. Screen size: about 420,000 compounds; about 64,000 (15%) were called active. Inconclusive means that the source gave no clear call. Such entries were picked first, then a sample of the others. The call rests on the fitted dose curve; in most records, active means well fitted inhibition curve with a large enough effect; inconclusive means small, poorly fitted or top-dose-only effect; inactive means flat fitted curve, though single readings scatter. A potency beside an inconclusive call is a rough fit, not a confirmed value.
# Assay: qHTS for Inhibitors of human tyrosyl-DNA phosphodiesterase 1 (TDP1): qHTS in cells in absence of CPT; further: nearly all actives have a fitted effect of over 55% in size
# Conditions: DT40 Tdp1-/- hTDP1 cells, no CPT, ATP luminescence, 48 h; activity change, negative = growth inhibition: at 46.2 µM (top of the series) unless noted
# Procedure, shortened: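 Luminescent ATP content (CellTiter-Glo) served as the growth readout. Knockout chicken DT40 cells expressing human TDP1 were exposed to compounds without camptothecin for a minimum 48 hr at 37 °C.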
# On the % scale 0 is the no-effect control and ±100 the full control effect; potency means the concentration at half of the fitted maximal effect; tags describe the fitted curve by direction and shape.
Structure (SMILES),Potency,"activity change, negative = growth inhibition"
Cc1c(Cl)cccc1NC(=O)NCCCN1CCCC1=O,inactive,–
Fc1ccc(-c2nc3ccccn3c2NCc2ccc3c(c2)OCO3)cc1,"inconclusive: 29.1 µM [inhibitor, single point]",–
Cn1ccc2c(-c3ccc(C(N)=O)cc3)cc3c(c21)C1CCC3O1 (centres undefined),"inconclusive: 25.9 µM [inhibitor, single point]",–
CO/N=C(/CS(=O)(=O)c1ccc(Br)cc1)c1ccc(OC)cc1,"inconclusive: 20.6 µM [inhibitor, single point]",–
COc1ccc2[nH]c(=O)c(CN(C(=O)c3ccccn3)C3CCCCC3)cc2c1,"inconclusive: 20.6 µM [inhibitor, partial curve, poor fit]",–
COc1ccc(-c2[nH]n(-c3ccc([N+](=O)[O-])cc3)c(=O)c2C=NCc2ccncc2)cc1,"inconclusive: 29.1 µM [inhibitor, single point]",–
COc1ccc(N2CCN(C(=O)c3c(-c4ccccc4)noc3C)CC2)cc1,"inconclusive: 18.4 µM [inhibitor, single point]",–
FC(F)(F)c1cc(-c2cccs2)nc2cc(-c3ccccc3)nn12,inactive,–
CCC1(CC)C(=O)C(C)(C)C(=O)OC1c1ccccn1 (centres undefined),"inconclusive: 23.1 µM [inhibitor, single point]",–
CCCCc1nn(-c2cc(Cl)ccc2OC)c2c1C(=O)CCC2,–,inconclusive: -30.5% [inhibitor]
Cc1ccc(OCC(O)CN2C(=O)NC(C)(C)C2=O)c(C)c1 (centres undefined),inactive,–
Cc1ccc(NC(=S)NNC(=O)c2ccc(N3CCOCC3)c([N+](=O)[O-])c2)cc1Cl,inactive,–
Cc1cnc(/C=C/c2ccc(N(C)C)cc2)cn1,active: 2.82 µM,–
O=C(CSc1n[nH]c(-c2cccs2)n1)N1CCCC1,inactive,–
CCN(CC)C(=O)CC(c1ccc(OC)cc1)c1c(OC)cc(OC)c2ccc(=O)oc12 (centres undefined),"inconclusive: 29.1 µM [inhibitor, single point]",–
Cc1ccc(C(=O)NC2CCN(CC(=O)Nc3cccc([N+](=O)[O-])c3)CC2)cc1,"inconclusive: 29.1 µM [inhibitor, single point]",–
O=C(Nc1ccn(CCCNCC2CCCCC2)c(=O)n1)OCc1ccccc1,"inconclusive: 16.4 µM [inhibitor, partial curve, poor fit]",–
Cc1ccc(O)c(N=Cc2cc(Cc3ccccc3)cc([N+](=O)[O-])c2O)c1,"inconclusive: 23.1 µM [inhibitor, single point]",–
c1ccc(CNc2c(-c3cccc(SC4CCCCC4)c3)nc3ccccn23)cc1,"inconclusive: 29.6 µM [inhibitor, single point] and inconclusive: 18.4 µM [inhibitor, single point]",–
